In one assay the test system is HSkMC. Put plainly: cytotoxicity call (relative viability < 0.9). Particulars: 10 µM.
For a further assay, the system named is HepG2. Put plainly: cytotoxicity call (relative viability < 0.9). Particulars: 10 µM.
The next assay concerns S. aureus RN4220. Nature of the assay: growth inhibition call (relative growth <= 0.2). As to conditions: 50 µM.

The other results are listed elsewhere or left out.

In the antibiotic and cytotoxicity screens of Wong et al. (2023) one finds cytotoxicity call and growth inhibition call data, which are given here for 27 molecules.

With `C[C@@H]1CCCCO[C@@H](CN(C)CC2CCCCC2)[C@@H](C)CN([C@H](C)CO)C(=O)c2cc(NC(=O)Nc3ccc(C(F)(F)F)cc3)ccc2O1`, the cytotoxicity call with HSkMC and in the assay with HepG2 was “active” in each case. The growth inhibition call with S. aureus RN4220 is “inactive”.
On to `Cl.c1ccc(CC2=NCCN2)cc1`, for which the cytotoxicity call in the assay with HSkMC and in the assay with HepG2 was “inactive” each time. Further, the growth inhibition call in the assay with S. aureus RN4220 was “inactive”.
In the case of `C[C@H]1CN([C@@H](C)CO)C(=O)c2c(c3ccccc3n2C)-c2ccccc2CO[C@@H]1CN(C)Cc1ccc(-c2ccccc2)cc1`, the cytotoxicity call in the assay on HSkMC and with HepG2 was “inactive” in each case. Also, the growth inhibition call in the assay with S. aureus RN4220 is “inactive”.
For `C[C@@H]1CN([C@@H](C)CO)C(=O)c2cc(NC(=O)Cc3ccccc3)ccc2O[C@@H]1CN(C)Cc1ccc(Oc2ccccc2)cc1`, the cytotoxicity call with HSkMC and with HepG2 was “active” throughout. The growth inhibition call in the assay with S. aureus RN4220 is “inactive”.
Take `C[C@H](CO)N1C[C@H](C)[C@@H](CN(C)CC2CC2)Oc2ccc(NS(=O)(=O)c3cn(C)cn3)cc2C1=O`: the cytotoxicity call with HSkMC and in the assay with HepG2 was “inactive” throughout. For the same molecule, the growth inhibition call in the assay on S. aureus RN4220 was “inactive”.
`Cc1ccc(OC(=O)N(C)C[C@H]2OCc3ccccc3-c3ccccc3C(=O)N([C@H](C)CO)C[C@@H]2C)cc1`: the cytotoxicity call with HSkMC and with HepG2 was “inactive” each time. For the same molecule, in the assay on S. aureus RN4220, the growth inhibition call was “inactive”.
For the molecule `C[C@@H]1CN([C@H](C)CO)C(=O)c2cc(NC(=O)Nc3ccc(F)cc3)ccc2O[C@@H](C)CCCCO[C@H]1CN(C)S(=O)(=O)c1cccs1`, the cytotoxicity call in the assay on HSkMC and in the assay on HepG2 was “inactive” each time. The growth inhibition call in the assay on S. aureus RN4220 was “inactive”.
As for `COc1ccc(S(=O)(=O)N2C[C@@H](O)COC[C@H]3O[C@H](CC(=O)NCc4ccc(Cl)c(Cl)c4)CC[C@@H]32)cc1`, the cytotoxicity call in the assay on HSkMC and in the assay on HepG2 was “inactive” each time. Besides, the growth inhibition call in the assay with S. aureus RN4220 was “inactive”.
As for `CC(C)NC(=O)Nc1ccc2c(c1)CC(=O)N([C@H](C)CO)C[C@@H](C)[C@@H](CN(C)Cc1ccc(Oc3ccccc3)cc1)O2`, the cytotoxicity call with HSkMC and in the assay with HepG2 was “active” throughout. Besides, the growth inhibition call in the assay with S. aureus RN4220 was “inactive”.
Take `Cc1noc(C)c1NC(=O)N(C)C[C@@H]1Oc2ccc(NC(=O)NC(C)C)cc2C(=O)N([C@@H](C)CO)C[C@@H]1C`: the cytotoxicity call in the assay with HSkMC and in the assay with HepG2 was “inactive” in each case. The growth inhibition call in the assay on S. aureus RN4220 was “inactive”.
On to `C[C@@H]1CN([C@H](C)CO)C(=O)Cc2cc(NC(=O)CCC(F)(F)F)ccc2O[C@@H]1CN(C)S(=O)(=O)c1cccs1`, for which the cytotoxicity call in the assay with HSkMC and with HepG2 was “inactive” throughout. Moreover, in the assay with S. aureus RN4220, the growth inhibition call is “inactive”.
With `C#CCN(O[C@@H](/C=C/[C@@H](O)Cc1ccccc1)C1CC1)[C@@H](Cc1ccc(-n2cc(COc3ccccc3/C=C(C)/C=C/C(=O)NO)nn2)cc1)C(=O)OC`, the cytotoxicity call in the assay with HSkMC and in the assay on HepG2 was “inactive” throughout. Besides, the growth inhibition call with S. aureus RN4220 was “inactive”.
For the molecule `C[C@H]1CN([C@@H](C)CO)C(=O)Cc2cc(NC(=O)Nc3ccc(C(F)(F)F)cc3)ccc2O[C@H]1CN(C)Cc1ccc2c(c1)OCO2`, the cytotoxicity call with HSkMC is “active”. In addition, the cytotoxicity call in the assay with HepG2 was “inactive”. Also, the growth inhibition call with S. aureus RN4220 is “inactive”.
On to `CC(C)(C)c1cc(C(=O)NN)no1`, for which the cytotoxicity call in the assay with HSkMC and in the assay on HepG2 was “inactive” in each case. The growth inhibition call in the assay on S. aureus RN4220 was “inactive”.
On to `C[C@@H]1CN([C@H](C)CO)C(=O)c2cc(NS(=O)(=O)c3cn(C)cn3)ccc2O[C@@H]1CN(C)S(=O)(=O)c1ccc(F)cc1`, for which the cytotoxicity call in the assay with HSkMC and in the assay on HepG2 was “inactive” throughout. Further, the growth inhibition call in the assay on S. aureus RN4220 was “inactive”.
With `CC(=O)OC1CC2C(C)(C)C(O)CCC2(C)C2CCC3(C)C(c4ccoc4)OC(=O)C4OC43C12C` (stereo unspecified), the cytotoxicity call with HSkMC and with HepG2 was “inactive” throughout. For the same molecule, in the assay with S. aureus RN4220, the growth inhibition call was “inactive”.
Regarding `C[C@@H]1CN([C@@H](C)CO)C(=O)c2cc(NC(=O)Nc3ccc(C(F)(F)F)cc3)ccc2O[C@@H]1CN(C)Cc1ccc(C(=O)O)cc1`, the cytotoxicity call in the assay on HSkMC and in the assay with HepG2 was “inactive” each time. For the same molecule, the growth inhibition call in the assay with S. aureus RN4220 is “inactive”.
As for `Cc1noc(C)c1S(=O)(=O)N(C)C[C@@H]1Oc2ccc(NS(=O)(=O)c3cn(C)cn3)cc2CC(=O)N([C@@H](C)CO)C[C@@H]1C`, the cytotoxicity call in the assay with HSkMC and in the assay with HepG2 was “inactive” each time. Further, the growth inhibition call with S. aureus RN4220 was “inactive”.
Regarding `CC(C)NC(=O)Nc1ccc2c(c1)C(=O)N([C@H](C)CO)C[C@H](C)[C@H](CN(C)C(=O)Nc1ccccc1)OCCCC[C@H](C)O2`, the cytotoxicity call in the assay with HSkMC and with HepG2 was “inactive” each time. For the same molecule, the growth inhibition call in the assay on S. aureus RN4220 was “inactive”.
Regarding `Cc1noc(C)c1NC(=O)N(C)C[C@H]1Oc2c(NC(=O)C3CCOCC3)cccc2C(=O)N([C@H](C)CO)C[C@H]1C`, the cytotoxicity call in the assay on HSkMC and in the assay with HepG2 was “inactive” each time. In addition, the growth inhibition call with S. aureus RN4220 was “inactive”.
Take `CN(C)CCCNC(=O)C[C@@H]1CC[C@@H]2[C@H](COc3ccc(NC(=O)NC4CCCC4)cc3C(=O)N2C)O1`: the cytotoxicity call in the assay on HSkMC and with HepG2 was “inactive” throughout. Also, the growth inhibition call with S. aureus RN4220 was “inactive”.
For `CNC[C@@H]1OCCCC[C@@H](C)Oc2ccc(NS(=O)(=O)c3c(C)noc3C)cc2C(=O)N([C@H](C)CO)C[C@H]1C`, the cytotoxicity call with HSkMC and in the assay on HepG2 was “inactive” throughout. For the same molecule, the growth inhibition call with S. aureus RN4220 is “inactive”.
Take `CN1C(=O)c2cc(NC(=O)C3CCC3)ccc2OC[C@@H]2O[C@@H](CC(=O)NCCc3ccncc3)CC[C@H]21`: the cytotoxicity call in the assay with HSkMC and in the assay with HepG2 was “inactive” each time. In addition, the growth inhibition call with S. aureus RN4220 is “inactive”.
In the case of `C[C@@H]1CN([C@H](C)CO)C(=O)c2cc(NC(=O)Nc3cccc4ccccc34)ccc2O[C@@H](C)CCCCO[C@@H]1CN(C)Cc1ccncc1`, the cytotoxicity call in the assay on HSkMC and in the assay with HepG2 was “inactive” in each case. In addition, in the assay on S. aureus RN4220, the growth inhibition call was “inactive”.
Turning to `COc1ccc(S(=O)(=O)Nc2ccc3c(c2)C(=O)N([C@H](C)CO)C[C@@H](C)[C@H](CN(C)Cc2ccc(Cl)c(Cl)c2)OCCCC[C@H](C)O3)cc1`, the cytotoxicity call in the assay on HSkMC (human skeletal muscle cells) and with HepG2 was “active” each time. Further, the growth inhibition call in the assay with S. aureus RN4220 was “inactive”.
Regarding `COCC#Cc1ccc2c(c1)O[C@H](CN(C)C(=O)c1ccccc1)[C@@H](C)CN([C@H](C)CO)S2(=O)=O`, the cytotoxicity call in the assay with HSkMC and in the assay on HepG2 was “inactive” throughout. Besides, the growth inhibition call in the assay on S. aureus RN4220 was “inactive”.
On to `C[C@@H]1CCCCO[C@@H](CN(C)Cc2ccccc2)[C@H](C)CN([C@@H](C)CO)C(=O)c2cc(NS(=O)(=O)c3cccs3)ccc2O1`, for which the cytotoxicity call in the assay with HSkMC and with HepG2 was “inactive” in each case. In addition, in the assay with S. aureus RN4220, the growth inhibition call was “inactive”.
